Results taken from PubChem BioAssay AID1345082 (National Center for Advancing Translational Sciences (NCATS), 2018).
Screen size: about 94,000 compounds; about 4,000 (4.3%) were called active. The shares of active, inactive and inconclusive entries below differ from those in the screen. Calls come from the whole dose curve; as a rule, active = well fitted inhibition curve with a large enough effect; inconclusive = small, poorly fitted or top-dose-only effect; inactive = no such curve, though single readings can be large or run the other way. Potencies beside an inconclusive call are fits to weak or partial responses and may not hold up.

Experiment: Cytotoxic Profiling in NIH 3T3 Cell Line of Diverse Libraries Using Quantitative High-Throughput Screening; note: nearly all actives have a fitted effect of over 55% in size
Conditions: NIH 3T3 viability, CellTiter-Glo ATP luminescence, 48-72 h; series mostly up to 96.7 µM
How it was run: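 Mouse fibroblast NIH 3T3 cells, 400 per well, received compound via pintool and were incubated for 48 or 72 hr prior to CellTiter-Glo ATP luminescence measurement.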
Potency is the fitted concentration of half-maximal effect; tags give direction and shape of the fitted curve.

Compound	Potency
COc1ccc(CNC(=O)C2CCCN(c3nccc(Nc4ccc(C)cc4)n3)C2)cc1 (stereo unspecified)	inconclusive: 10 µM [inhibitor, full curve, poor fit]
O=C(Nc1cccc(F)c1)N1CCOc2ccc(CN3CCc4ccccc4C3)cc2C1	inconclusive: 44.7 µM [inhibitor, partial curve, poor fit]
COc1nc2c(cc1CNC(=O)CSC)C(=O)N(CCc1ccccn1)C2	inactive
CCc1nc2c(c(-c3ccc(O)cc3)n1)CN(Cc1cccc(C(F)(F)F)c1)CC2	inconclusive: 50.1 µM [inhibitor, partial curve, poor fit]
O=C(NCc1ccc(C(F)(F)F)cc1)C1CN(C2CCCC2)C(=O)N1 (stereo unspecified)	inactive
O=C(Nc1ccc(Oc2ccccc2)cc1)c1cc2n(n1)CC(c1ccc(Cl)cc1)OC2 (stereo unspecified)	inactive
COc1ccc(OC2CN(Cc3ccc(C#N)cc3)C2)cc1	inactive
O=C(NCc1n[nH]c2c1CCC2)c1coc(COc2cccc(F)c2F)n1	inconclusive: 44.7 µM [inhibitor, partial curve]
COCCCNC(=O)C1(C)CN(C)Cc2ccc(NCc3ccccc3)nc21 (stereo unspecified)	inconclusive: 79.4 µM [inhibitor, partial curve, poor fit]
O=C(c1ccsc1)N1CCCn2cc(-c3ccccc3)nc21	inactive
c1ccc(C2=NOC3(CCN(Cc4c[nH]c5ccccc45)CC3)C2)cc1	inconclusive: 28.2 µM [inhibitor, full curve, poor fit]
Cn1ncc2c(C(=O)NCCc3ccccc3)cc(-c3ccc(C(F)(F)F)cc3)nc21	inactive
CC(C)C[C@@H]1N[C@H](C(=O)NCc2ccco2)Cc2cn(Cc3nccn3C)c3cccc1c23	inconclusive: 56.2 µM [inhibitor, partial curve, poor fit]
O=C(Nc1cccnc1)c1nc2c(o1)CCN(Cc1ccc3[nH]ccc3c1)CC2	inconclusive: 79.4 µM [inhibitor, partial curve]
CN(Cc1ccc2ncccc2c1)C(=O)c1ccc(C2CCNC2)cc1 (stereo unspecified)	inactive
COCCN1C(=O)CCc2cc(NC(=O)c3ccc(OC(F)(F)F)cc3)ccc21	inconclusive: 50.1 µM [inhibitor, partial curve, poor fit]
O=[S+]([O-])(c1cccs1)N1CC(Oc2ccc3c(c2)OCO3)C1	inconclusive: 70.8 µM [inhibitor, partial curve, poor fit]
CN(Cc1ccc(-c2ccccc2)cc1)C(=O)Cc1ccc(F)cc1	active: 35.5 µM
CN(Cc1ccc(F)cc1)C(=O)Cc1cccc(Cl)c1	inconclusive: 63.1 µM [inhibitor, partial curve, poor fit]
Cc1ccc(-c2cn[nH]c2C2CCCN(C(=O)CN3CCOCC3)C2)cc1 (stereo unspecified)	inactive
O=C(CC1CCCC1)N1CCC(N2CC3CC(C2)[C@H]2CCCC(=O)N2C3)CC1 (stereo partly specified)	inactive
O=C(NCCNC(=O)c1ccccc1F)c1ccc(-c2cncnc2)cc1	inactive

Compound	Potency
CN(C(=O)c1csc(Cc2ccccc2)n1)C1CCCN(CCc2ccccc2)C1 (stereo unspecified)	inactive
O=C(NC[C@H]1Cn2c(-c3ccc(F)cc3)cnc2CO1)c1cccnc1	inactive
C[S+](=O)([O-])N1CC2(CCCN(Cc3ccccn3)C2)Cc2ccccc21 (stereo unspecified)	inactive
Cc1ccc([S+](=O)([O-])N2CCCC(C(=O)N3CCC(N4Cc5cccn5C4=O)CC3)C2)cc1 (stereo unspecified)	inconclusive: 35.5 µM [inhibitor, partial curve, poor fit]
COc1ccccc1-c1ccc2ncn(C3CC3)c(=O)c2n1	inconclusive: 100 µM [inhibitor, partial curve, poor fit]
COc1ccc(CN2CCNc3cc(Nc4cccnc4)ncc3C2)cc1O	inconclusive: 10 µM [inhibitor, full curve, poor fit]
COCCN1CC(CO)C2(CCN(Cc3cccc(Cl)c3F)CC2)C1 (stereo unspecified)	inconclusive: 50.1 µM [inhibitor, partial curve, poor fit]
CCOC(=O)[C@H]1C[C@]2(CCCCN(CCOC)C2=O)N(C(=O)Cc2cccs2)[C@H]1c1ccco1	inconclusive: 70.8 µM [inhibitor, single point]
COc1ccccc1C(=O)NC1CCCN(c2ccnc3ccnn23)C1 (stereo unspecified)	inconclusive: 56.2 µM [inhibitor, partial curve, poor fit]
O=C(Cc1ccccc1)N1CCC2(CC1)COc1ccccc1NC2=O	inconclusive: 31.6 µM [inhibitor, partial curve, poor fit]
O=C(NCc1ccc(F)c(F)c1)c1ccc2nnc(C3CC3)n2c1	inconclusive: 79.4 µM [inhibitor, partial curve]
CC(C)(C)n1cnc2c(N3CC4CCC(C3)N4CC(F)(F)F)ncnc21	inactive
CN(Cc1cccnc1)c1nc2c(c(=O)[nH]1)CCN(Cc1ccccc1C(F)(F)F)CC2	inconclusive: 35.5 µM [inhibitor, partial curve, poor fit]
COC(=O)[C@@H]1Cc2c([nH]c3ccccc23)[C@H]2C[C@@H](NCc3cccnc3)C[C@@H](c3ccc(F)c(F)c3)N21	inconclusive: 28.2 µM [inhibitor, full curve, poor fit]
CN(C)CCNC(=O)c1nc(-c2ccccc2)cc2[nH]ccc12	inconclusive: 56.2 µM [inhibitor, partial curve, poor fit]
COc1ccc(Nc2ccnc(N3CCN(C(=O)c4ccccc4Cl)CC3)n2)cc1	inconclusive: 44.7 µM [inhibitor, partial curve, poor fit]
CC(=O)N1CCc2sc(C(=O)NCc3cccc(Cl)c3)cc2C1	inconclusive: 35.5 µM [inhibitor, partial curve]
N#Cc1ccccc1CN1C(=O)NC(c2cccnc2)(C2CCNCC2)C1=O (stereo unspecified)	inactive
CC(C)CNC(=O)c1csc(-c2cccc(OC(C)C)c2)n1	inconclusive: 44.7 µM [inhibitor, partial curve, poor fit]
COc1ccc(OC)c(S(=O)(=O)N2CCCN(C)c3ccccc32)c1	inconclusive: 39.8 µM [inhibitor, partial curve, poor fit]
Oc1cccc(-c2cc(-c3cccnc3)c3cncn3c2)c1	active: 25.1 µM
COc1ccc(-c2cc(N3CCCC(NC(=O)c4cc(F)ccc4Cl)C3)n[nH]2)cc1 (stereo unspecified)	inconclusive: 25.1 µM [inhibitor, full curve]

Compound	Potency
COc1cccc(-c2c(C(=O)NCc3cccnc3)nc3sccn23)c1	inactive
COC(=O)C1=C(C)N=C2SC=C(CC(=O)NCc3ccccc3)N2C1c1ccccc1OC (stereo unspecified)	inconclusive: 44.7 µM [inhibitor, partial curve, poor fit]
CC(=O)NCCC(=O)N1Cc2ccccc2CC2(CCCCN2CC2CCCC2)C1 (stereo unspecified)	inactive
COc1ccc(F)cc1-c1cccc(C(=O)NCC(=O)NCCC2CCCCC2)c1	inconclusive: 70.8 µM [inhibitor, partial curve, poor fit]
Cc1ccccc1CN1C[C@@H]2C(=O)N(C)C(=O)[C@@H]2C1	inactive
O=S(=O)(c1ccccc1)N1CC(c2nc(-c3ccncc3)no2)C1	inconclusive: 50.1 µM [inhibitor, partial curve, poor fit]
Cc1cccc(C(=O)NC2CCN(c3cc(-c4ccc(Cl)cc4)[nH]n3)CC2)c1	inconclusive: 28.2 µM [inhibitor, partial curve, poor fit]
CCOc1ccccc1NC(=O)N1CCC(N2CC3CC(C2)[C@H]2CCCC(=O)N2C3)CC1 (stereo partly specified)	inactive
Cn1cccc1CN1CCCC2(Cc3ccccc3CNC2=O)C1 (stereo unspecified)	inactive
COc1ccc(-c2cc(N3CCCN(C(=O)Cc4cccc(OC)c4)CC3)n[nH]2)cc1	inactive
CC(C)CN(CC1CN(C(=O)Nc2cccc(Cl)c2)CCO1)C(=O)c1ccccc1 (stereo unspecified)	inconclusive: 50.1 µM [inhibitor, partial curve, poor fit]
COCCC1(NS(=O)(=O)c2cccnc2)CCN(S(C)(=O)=O)CC1	inactive
O=C(CN1C(=O)NC2(CCCCC2)C1=O)N1CCN(c2ccccc2)CC1	inconclusive: 56.2 µM [inhibitor, partial curve, poor fit]
Cc1ccc(NC(=O)Cn2c(=O)n(-c3ccccc3)c(=O)c3c2cc(C)n3C)cc1	active: 22.4 µM
O=C1CC2(CCN(C(=O)C3CCCN(C(=O)Nc4ccc(Cl)cc4)C3)CC2)Oc2ccccc2N1 (stereo unspecified)	inconclusive: 50.1 µM [inhibitor, partial curve, poor fit]
O=C(NC1CCN(c2cc(-c3cccs3)[nH]n2)C1)c1cccc(Cl)c1 (stereo unspecified)	inconclusive: 44.7 µM [inhibitor, partial curve, poor fit]
Cc1ccc(CN2CCCCCCNC(=O)[C@@H]3C[C@@H](C(=O)NCCc4cnc[nH]4)C[C@@H]32)o1	inconclusive: 79.4 µM [inhibitor, single point]
CNC(=O)c1cc2cc(-c3c(C)noc3C)nc(-c3ccc(F)cc3OC)c2o1	inconclusive: 56.2 µM [inhibitor, partial curve, poor fit]
CNC1CCCc2ccccc21 (stereo unspecified)	inactive
O=C(Cc1ccc(F)cc1)N1CCC(c2nn(-c3ccc(Cl)cc3)c(=O)[nH]2)CC1	inconclusive: 44.7 µM [inhibitor, partial curve, poor fit]
CNC(=O)C1CCCN1C(=O)c1cccc(-c2ccccn2)c1 (stereo unspecified)	inactive
CN(Cc1cccc(C(F)(F)F)c1)S(=O)(=O)c1cccs1	inconclusive: 89.1 µM [inhibitor, partial curve, poor fit]
